Some of the results follow.

For one assay, the system named is HSkMC. The experiment in a line: cytotoxicity call (relative viability < 0.9). The note with it: 10 µM.
In the next assay the test system is HepG2. The experiment in a line: cytotoxicity call (relative viability < 0.9). The note with it: 10 µM.
The next assay relates to S. aureus RN4220. The experiment in a line: growth inhibition call (relative growth <= 0.2). As to conditions: 50 µM.

On to `Cc1ccc2nc(-c3ccc(NC(=O)C4CCC4)cc3)sc2c1`, for which the cytotoxicity call in the assay with HSkMC and in the assay with HepG2 was “inactive” throughout. Also, the growth inhibition call in the assay on S. aureus RN4220 was “inactive”.
Take `C[C@H]1CCCCO[C@@H](CN(C)C(=O)Cc2ccccc2)[C@@H](C)CN([C@@H](C)CO)C(=O)c2cc(NC(=O)CCC(F)(F)F)ccc2O1`: the cytotoxicity call in the assay with HSkMC and in the assay with HepG2 was “inactive” in each case. For the same molecule, the growth inhibition call with S. aureus RN4220 is “inactive”.
In the case of `C[C@@H]1CN([C@H](C)CO)C(=O)Cc2cc(NC(=O)Nc3ccc(F)cc3)ccc2O[C@@H]1CN(C)S(C)(=O)=O`, the cytotoxicity call with HSkMC and in the assay with HepG2 was “inactive” throughout. Further, in the assay on S. aureus RN4220, the growth inhibition call was “inactive”.
Consider `C[C@@H]1CCCCO[C@H](CN(C)C(=O)c2ccncc2)[C@@H](C)CN([C@H](C)CO)C(=O)c2cc(NS(C)(=O)=O)ccc2O1`, for which the cytotoxicity call with HSkMC and with HepG2 was “inactive” each time. The growth inhibition call with S. aureus RN4220 was “inactive”.
With `C[C@H](CO)N1C[C@H](C)[C@H](CN(C)S(=O)(=O)c2ccccc2)OCCCC[C@H](C)Oc2ccc(NC(=O)Nc3ccc4c(c3)OCO4)cc2C1=O`, the cytotoxicity call in the assay on HSkMC and with HepG2 was “inactive” throughout. In the assay with S. aureus RN4220, the growth inhibition call is “inactive”.
`C[C@@H]1CN([C@@H](C)CO)C(=O)c2cc(-c3cccc(C(=O)N(C)C)c3)cnc2O[C@@H]1CN(C)S(=O)(=O)c1ccccc1`: the cytotoxicity call in the assay on HSkMC and in the assay on HepG2 was “inactive” each time. Further, in the assay on S. aureus RN4220, the growth inhibition call was “inactive”.
Consider `O=C(c1ccc(S(=O)(=O)N2CCCCCC2)cc1)N(Cc1cccnc1)c1nc2c(F)cc(F)cc2s1`, for which the cytotoxicity call in the assay with HSkMC and in the assay with HepG2 was “inactive” each time. Also, the growth inhibition call with S. aureus RN4220 was “inactive”.
As to `OC[C@H]1O[C@H](OC[C@H]2O[C@@H](O)[C@H](O)[C@@H](O)[C@@H]2O)[C@H](O)[C@@H](O)[C@@H]1O`, the cytotoxicity call with HSkMC and in the assay with HepG2 was “inactive” in each case. Besides, the growth inhibition call in the assay with S. aureus RN4220 is “inactive”.
As to `C[C@@H]1CN([C@H](C)CO)C(=O)c2cc(NS(=O)(=O)c3cccs3)ccc2O[C@@H](C)CCCCO[C@@H]1CN(C)Cc1ccc(Cl)c(Cl)c1`, the cytotoxicity call in the assay on HSkMC and with HepG2 was “inactive” throughout. In addition, the growth inhibition call in the assay with S. aureus RN4220 is “inactive”.
With `C[C@]12CC[C@@H]3[C@]4(C=C[C@@]5(C=C4C(=O)c4cc6ccccc6s4)C[C@@H](O)CC[C@]35C)[C@@H]1CC[C@@]2(O)CN1CCC(n2c(=O)[nH]c3ccccc32)CC1`, the cytotoxicity call in the assay with HSkMC and in the assay with HepG2 was “inactive” throughout. Besides, in the assay on S. aureus RN4220, the growth inhibition call is “inactive”.
Consider `C[C@H](CO)N1C[C@H](C)[C@@H](CN(C)Cc2ccc(C(F)(F)F)cc2)Oc2c(NC(=O)c3ccc(-c4nccs4)cc3)cccc2C1=O`, for which the cytotoxicity call in the assay on HSkMC and with HepG2 was “inactive” throughout. Besides, the growth inhibition call in the assay on S. aureus RN4220 is “inactive”.
Consider `C[C@@H]1CN([C@@H](C)CO)C(=O)Cc2cc(NC(=O)Nc3ccccc3)ccc2O[C@@H]1CN(C)C(=O)Nc1cccc2ccccc12`, for which the cytotoxicity call in the assay on HSkMC and in the assay on HepG2 was “inactive” each time. Moreover, in the assay with S. aureus RN4220, the growth inhibition call was “inactive”.
Consider `C[C@H](CO)N1C[C@H](C)[C@@H](CN(C)Cc2ccccc2)Oc2c(NC(=O)CCCCCC(=O)Nc3ccccc3N)cccc2C1=O`, for which the cytotoxicity call in the assay with HSkMC and in the assay with HepG2 was “inactive” in each case. In the assay with S. aureus RN4220, the growth inhibition call was “inactive”.
As for `COCC#Cc1ccc([C@H]2[C@H](CO)N3C(=O)CN(C(=O)c4cccnc4)C[C@@H]23)cc1`, the cytotoxicity call in the assay with HSkMC and in the assay with HepG2 was “inactive” each time. In addition, the growth inhibition call with S. aureus RN4220 is “inactive”.
In the case of `CCOC(=O)N(C)C[C@H]1OCc2cn(nn2)CCCC(=O)N([C@@H](C)CO)C[C@@H]1C`, the cytotoxicity call with HSkMC and in the assay on HepG2 was “inactive” each time. The growth inhibition call with S. aureus RN4220 was “inactive”.
Turning to `C[C@@H]1CN([C@@H](C)CO)C(=O)c2cc(NC(=O)Nc3cccc4ccccc34)ccc2O[C@@H](C)CCCCO[C@@H]1CN(C)Cc1ccc(C(F)(F)F)cc1`, the cytotoxicity call in the assay with HSkMC and with HepG2 was “inactive” in each case. Also, in the assay with S. aureus RN4220, the growth inhibition call is “inactive”.
For the molecule `C[C@@H]1CCCCO[C@@H](CN(C)S(=O)(=O)c2cccs2)[C@H](C)CN([C@H](C)CO)C(=O)c2cc(NS(C)(=O)=O)ccc2O1`, the cytotoxicity call in the assay with HSkMC and in the assay with HepG2 was “inactive” throughout. Moreover, the growth inhibition call in the assay on S. aureus RN4220 was “inactive”.
Turning to `O=C(OCc1cccc(O)c1O[C@@H]1O[C@H](CO)[C@@H](O)[C@H](O)[C@H]1O)[C@]1(O)C(=O)[C@@H]2C=C[C@H]1c1c2ccc(O)c1O`, the cytotoxicity call in the assay on HSkMC and in the assay on HepG2 was “inactive” each time. Also, the growth inhibition call in the assay on S. aureus RN4220 was “inactive”.
Take `COCCOC(=O)N1C(=O)[C@@]2(c3cc(C#CC4(O)CCCCCC4)ccc31)[C@H](C(=O)N1CCN(c3ncccn3)CC1)[C@H]1C(=O)O[C@H](c3ccccc3)[C@H](c3ccccc3)N1[C@@H]2c1ccccc1OCCO`: the cytotoxicity call with HSkMC and in the assay on HepG2 was “inactive” each time. Besides, the growth inhibition call with S. aureus RN4220 was “inactive”.
In the case of `CC(C)NC(=O)N(C)C[C@H]1OCCCC[C@@H](C)Oc2ccc(NC(=O)C3CCCCC3)cc2C(=O)N([C@@H](C)CO)C[C@H]1C`, the cytotoxicity call in the assay with HSkMC and with HepG2 was “inactive” each time. For the same molecule, the growth inhibition call in the assay on S. aureus RN4220 is “inactive”.
Consider `Cc1ccc(S(=O)(=O)Nc2ccc3c(c2)C(=O)N([C@H](C)CO)C[C@@H](C)[C@H](CN(C)C(=O)Nc2c(C)noc2C)OCCCC[C@@H](C)O3)cc1`, for which the cytotoxicity call with HSkMC and with HepG2 was “inactive” in each case. The growth inhibition call with S. aureus RN4220 is “inactive”.
With `Cc1noc(C)c1NC(=O)Nc1ccc2c(c1)C(=O)N([C@@H](C)CO)C[C@H](C)[C@H](CN(C)Cc1ccc(C(F)(F)F)cc1)OCCCC[C@H](C)O2`, the cytotoxicity call in the assay on HSkMC and in the assay with HepG2 was “inactive” throughout. In the assay on S. aureus RN4220, the growth inhibition call is “inactive”.
On to `C[C@H](CO)N1C[C@H](C)[C@@H](CN(C)S(=O)(=O)c2cccc(F)c2)Oc2cc(C#CCN(C)C)ccc2S1(=O)=O`, for which the cytotoxicity call with HSkMC and in the assay with HepG2 was “inactive” in each case. Moreover, the growth inhibition call in the assay with S. aureus RN4220 is “inactive”.
Regarding `COc1ccc(CN(C)C[C@@H]2OCCCC[C@@H](C)Oc3ccc(NC(=O)Nc4ccc(F)cc4)cc3C(=O)N([C@H](C)CO)C[C@H]2C)cc1`, in the assay with HSkMC, the cytotoxicity call is “inactive”. Also, the cytotoxicity call in the assay with HepG2 is “active”. Besides, the growth inhibition call in the assay with S. aureus RN4220 is “inactive”.
Take `O=C(/C=C/c1ccccc1)OC[C@H]1O[C@@H](O[C@@H]2CC(C(=O)O)=C[C@@H](O)[C@H]2O)[C@H](O)[C@@H](O)[C@@H]1O`: the cytotoxicity call in the assay with HSkMC and with HepG2 was “inactive” in each case. The growth inhibition call in the assay with S. aureus RN4220 was “inactive”.
As to `CN(CC(=O)NC1CCCC1)S(C)(=O)=O`, the cytotoxicity call in the assay on HSkMC (human skeletal muscle cells) and in the assay on HepG2 was “inactive” in each case. Moreover, the growth inhibition call in the assay on S. aureus RN4220 was “inactive”.
For the molecule `CC(C)N1CC=C[C@@]23O[C@@H]4C=CCCOC(=O)[C@@H]4[C@H]2C(=O)N(CCO)[C@@H]3C1=O`, the cytotoxicity call in the assay with HSkMC and with HepG2 was “inactive” in each case. Besides, the growth inhibition call with S. aureus RN4220 was “inactive”.

The values above are taken from the antibiotic and cytotoxicity screens of Wong et al. (2023).
